Hit rate of the full screen: of about 310,000 compounds, about 2,200 (0.71%) showed an effect of 50% or more. The effect is printed as a negative number. Some of the results follow.
Biological target: human ether-à-go-go-related gene (hERG) potassium channel (human, UniProt Q12809)
Assay: primary screen, population patch clamp on CHO cells stably expressing hERG

human ether-à-go-go-related gene (hERG) potassium channel, sequence (Q12809 whole entry, looked up): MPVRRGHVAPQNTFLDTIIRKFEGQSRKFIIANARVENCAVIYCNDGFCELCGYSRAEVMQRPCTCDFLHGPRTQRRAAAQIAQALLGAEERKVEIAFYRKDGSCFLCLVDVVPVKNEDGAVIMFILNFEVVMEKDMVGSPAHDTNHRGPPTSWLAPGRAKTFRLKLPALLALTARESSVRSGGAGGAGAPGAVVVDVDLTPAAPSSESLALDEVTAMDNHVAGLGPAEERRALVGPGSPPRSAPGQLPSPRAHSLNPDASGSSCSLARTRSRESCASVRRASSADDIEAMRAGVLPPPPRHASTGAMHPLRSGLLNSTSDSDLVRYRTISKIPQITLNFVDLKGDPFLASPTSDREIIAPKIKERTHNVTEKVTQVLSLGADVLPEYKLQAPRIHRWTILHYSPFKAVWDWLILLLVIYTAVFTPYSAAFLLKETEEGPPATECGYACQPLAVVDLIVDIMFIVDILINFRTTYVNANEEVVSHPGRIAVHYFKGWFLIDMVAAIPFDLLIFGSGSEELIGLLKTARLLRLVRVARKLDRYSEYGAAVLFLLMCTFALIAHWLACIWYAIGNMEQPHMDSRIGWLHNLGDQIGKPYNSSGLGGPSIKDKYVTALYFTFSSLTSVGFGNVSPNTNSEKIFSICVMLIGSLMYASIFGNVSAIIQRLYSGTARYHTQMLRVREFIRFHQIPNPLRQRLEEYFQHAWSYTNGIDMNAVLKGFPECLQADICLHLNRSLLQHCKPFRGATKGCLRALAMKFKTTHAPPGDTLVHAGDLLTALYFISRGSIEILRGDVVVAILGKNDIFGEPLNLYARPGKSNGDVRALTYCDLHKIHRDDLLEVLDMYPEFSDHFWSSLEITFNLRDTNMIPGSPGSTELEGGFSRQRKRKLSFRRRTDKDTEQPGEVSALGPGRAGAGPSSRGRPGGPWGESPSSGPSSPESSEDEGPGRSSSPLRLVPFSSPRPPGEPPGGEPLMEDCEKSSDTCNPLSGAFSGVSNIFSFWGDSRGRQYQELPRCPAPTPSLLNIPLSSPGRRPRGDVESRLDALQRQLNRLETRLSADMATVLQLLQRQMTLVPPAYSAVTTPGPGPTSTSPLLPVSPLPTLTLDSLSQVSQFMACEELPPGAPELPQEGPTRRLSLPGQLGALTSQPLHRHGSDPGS

Compound	hERG current change (%, negative = inhibition) at 1uM [%]
Cc1cc(C)c2[nH]c(=O)c(CN(Cc3cccs3)C(=S)NCc3ccco3)cc2c1	0.338
CC(=O)c1cccc(-n2nnnc2SCC(=O)Nc2cc(C)on2)c1	12.1
CCCCn1c(=O)c2c(c3ccccc31)OCC(=O)N2	7.19
Cc1cccc(-c2cc3c(nn2)-c2ccccc2C3=O)c1	4.87
CCOC(=O)C1(Cc2cccc(OC)c2)CCCN(C(=O)c2ccc(OC)o2)C1 (centres unmarked)	-8.25
O=C(CCSc1ccc(F)cc1)NNC(=O)c1ccc([N+](=O)[O-])cc1	-21.4
O=C(/C=C/c1cccs1)c1ccc([N+](=O)[O-])cc1	13.9
O=C(O)C/C(=C\c1ccc(N2CCOCC2)c([N+](=O)[O-])c1)c1nc2ccccc2s1	5.65
CC(C)(C)C1CCC(OCC(O)CN2CCN(c3ccccc3)CC2)CC1.Cl (centres unmarked)	11.4
CN=C(NC#N)NCCSCc1nc[nH]c1C	13
O=C(CCCC(=O)c1ccc(F)cc1)c1ccc(F)cc1	5.62
CC1CCCN(C(=S)Nc2ccc3nc4n(c(=O)c3c2)CCCCC4)C1 (centres unmarked)	-43
CCOC(=O)C1CCCN(C(=O)CCNS(=O)(=O)c2cc(Br)cnc2N)C1 (centres unmarked)	10.8
CCOCCCNC(=O)C1CCN(S(=O)(=O)N2CCCCC2)CC1	10.3
COc1cc(/C=N/NC(=O)C2COc3ccccc3O2)cc(OC)c1OC (centres unmarked)	12.3
CCOC(=O)c1cc(-c2ccccc2)n(CCC(=O)N2CCN(c3ccccc3OC)CC2)c1C	11.5
C#CCOCCOCCOCCNc1nc(N2CCN(C(=O)[C@H](CCC(=O)O)n3cc(C(N)CC(C)C)nn3)CC2)nc(N2CCN(C(=O)[C@H](CCC(=O)O)n3cc(C(N)[C@H](C)CC)nn3)CC2)n1.Cl (some centres unmarked)	11.4
COc1ccc(C(C(=O)NC2CCCC2)N(C(=O)c2ccco2)c2cccc(C(C)=O)c2)cc1OC (centres unmarked)	12.4
CC(C)CNC(=O)C(=O)NNC(=O)C1CCCCC1	3.29
Cc1ccc(N2C(=O)CN(Cc3sccc3C)C2=S)cc1C	4.95
CCc1ccc(CN2CCC(N3CCC(C(=O)N4CCCC4)CC3)CC2)o1	-28.3
COC(=O)c1cccc(NC(=O)c2ccccc2)c1	3.59
O=C(CCn1cccn1)N1CCCC(N2CCN(c3cccc(Cl)c3)CC2)C1 (centres unmarked)	-11.8

Source: publication PMC4336329 (PLoS ONE, 2015)
